Measurements from the RNAGym collection of RNA variant scans (doi:10.7554/elife.90254).
Read counts are not given, so values of variants with three or more changes are uncertain.

B1: OR4K15 (parent)
chain: GUUAACGGUCAUAGGCCAUGGAAACUAGGAGCACCAUUUCGCUGCCAGUGAAGAAAUGAACAAAGAAAAUCUGGGCCAGGCAGGCAUCAAAAGAAAUAGUCUUGCGCUCAACCAGAAAGUCUGUAAUCAUUUUAAGGGUA

Variants of: B1
Experiment: self-cleavage, relative activity (ratio to wild type); higher = more cleavage; in vitro, sequencing; the parent is a self-cleaving ribozyme

Variant | self-cleavage
GCUAACGGUCAUAGGCCAUGGAAACUAGGAGCACCAUCUCGCUGCCAGUGAUGAAAUGAAUAAAGAAAAUCUGGGCCAGGCAGGCAUCAAAAGAAAUAGUCUUGCGCUCAACCAGAAAGUCUGUAAUCAUCUUAAGGGUA [U2C U38C A52U C61U U131C] | 0.91
GCUAACGGUCAUAGGCCAUGGAAACUAGGAGCACCAUCUCGCUGCCAGUGAAGAAAUGUACAAAGAAAAUCUGGGCCAGGCAGGCUUCAAAAGAAAUAGUCUUGCGCUCAACCAGAAAGUCUGUAAUCAUUUUAAGGGUA [U2C U38C A59U A86U] | 1.26
GCUAACGGUCAUAGGCCAUGGAAACAAGGAGCACCAUUUCGCUGCCAGUGAAGAAAUGAACAAAGAAAGUCUGGGCCAGGCAGGCAUCAAAAGAAAUAGUCUUGCGCUCAACCAGAGAGUCUGUAAUCAUUUUAAGGGUA [U2C U26A A69G A117G] | 0.67
GCUAACGGUCAUAGGCCAUGGAAACCAGGAGCACCAUUUCGCUGCCAGUGAAGAAAUGAACAAAGAAAAUCUGGGCCAGGCAGGCAUCAAUAGAAAUAGUCUUGCGCUCAACCAGAAAGUCUGUAAUCAUUUUAAGGGUA [U2C U26C A91U] | 1.06
GCUAACGGUCAUAGGCCAUGGAAACCAGGAGCACCAUUUCGCUGCCAGUGAAGAAAUGAACAAAGAAAAACUGGGCCAGGCAGGCAUCAAAAGAAAUAGUCUUGCGCCCAAACAGAAAGUCUGUAAUCAUUUUAAGGGUA [U2C U26C U70A U108C C112A] | 0.02
GCUAACGGUCAUAGGCCAUGGAAACUAGGAGCACCACUUCGCUGCCAGUGAAGGAAUGAACAAAGAAAAUCUGGGCCAGGCAGGCAUCAAAAGAAAUAGUCUUGCGCUCAACCAGAAAGUCUGUAAUCAUUUUAAGGGUA [U2C U37C A54G] | 0.87
GCUAACGGUCAUAGGCCAUGGAAACUAGGAGCACCACUUCGCUGCCAGUGAAGAAAUGAACAAAGAAGAUCUGGGCCGGGCAGGCAUCAAAAGAAAUAGUCUUGCGCUCAACCAGAAAGUCUGUAAUCAUUUUAAGGGUA [U2C U37C A68G A78G] | 0.2
GCUAACGGUCAUAGGCCAUGGAAACCAGGAGCACCAUUUCGCUGCCAGUGAAGAAAUGAACAAAGAAAAUCUGGGCCAGGCAGGCAUCAAAAGAAAUAGUCUUGCGCUCACCCAGAAAGUCUGUAAUCAUUUUAUGGGUA [U2C U26C A111C A135U] | 0.03
GCUAACGGUCAUAGGCCAUGGAAACUAGGAGCACCAUCUCGCUGCCAGUGAAGAAAUGGACAAAGAAAAUCUGGGCCAGGCAGGCAUCAAGGGAAAUAGUCUUGCGCUCAACCAGAAAGUCUGUAAUCAUUUUAAGGGUA [U2C U38C A59G A91G A92G] | 0
GCUAACGGUCAUAGGCCAUGGAAACUAGGAGCACCAUCUCGCUGCCAGUGGAGAAAUGAACGAAGAAAGUCUGGGCCAGGCAGGCAUCAAAAGAAAUAGUCUUGCGCUCAACCAGAAAGUCUGUAAUCAUUUUAAGGGUA [U2C U38C A51G A62G A69G] | 0.85
GCUAACGGUCAUAGGCCAUGGAAACCAGGAGCACCAUUUCGCUGCCAGUGUAGAAAUGAACAAAGAAAAUCUGGGCCAGGCAGGCAUCAAAAGAAAUAGUCUUGCGCUCAACCAGAAAGUCUGUAAUCAUUUAAAGGGUA [U2C U26C A51U U133A] | 0.81
GCUAACGGUCAUAGGCCAUGGAAACUAGGAGCACCAUCUCGCUGCCAGUGAAGAACUGAACAAAGAAAAUCUGGGCCAGGCAGGCAUCAAAAGAAAUAGUCUUGCGCUCAACCAGAAAGUCUGUAAUCAUUCUAAGGGUA [U2C U38C A56C U132C] | 0.62
GCUAACGGUCAUAGGCCAUGGAAACUAGGAGCACCAAUUCGCUGCCAGUGAAGAAAUGAACAAAGAAGAUCUGGGCCAGGCAGGCAUCAAAAGAAAUAGUCUUGCGCUCAACCAGAAAGUCUGUAAUCAUUUUAAGGGUA [U2C U37A A68G] | 1.08
GCUAACGGUCAUAGGCCAUGGAAACUAGGAGCACCAUUCCGCUGCCAGUGAAGAAAUGAACAAAGAAAAUCUGGGCCGGGCAGGCAUCAAAAGAAAUAGUCUUGCGCUCAACCAGAAAGUCUGUAAUCAUUUUAAGGGUA [U2C U39C A78G] | 0.35
GCUAACGGUCAUAGGCCAUGGAAACCAGGAGCACCAUUUCGCUGCCAGCGAAGAAAUGAACAAAGAAAAUCUGGGCCAGGCAGGCAUCAAAAGAAAUAGUCUUGCGCUCAACCAGAAAGUCUGUAAUCAUUUUAAGGGUA [U2C U26C U49C] | 1.22
GCUAACGGUCAUAGGCCAUGGAAACUAGGAGCACCAUCUCGCUGCCAGUGAAGAAAUGAACAAAGAAAAUCUGGGCCAGGCAGGCAUCAAAAGAGAUAGUCUUGCGCUCAACCAGAAAGUCUGUAAUCAUUUUAAGGGUA [U2C U38C A95G] | 1.24
GCUAACGGUCAUAGGCCAUGGAAACUAGGAGCACCACUCCGCUGCCAGUGAAGAAAUGAACAAAGAAUAUCUGGGCCAGGCAGGCAUCAAAAGAAAUAGUCUUGCGCUCAACCAGAAAGUCUGUAAUCAUUUUAAGGGUA [U2C U37C U39C A68U] | 1.55
GCUAACGGUCAUAGGCCAUGGAAACUAGGAGCACCAUUCCGCUGCCAGUGAAGAGAUGAACAAAGAAAAUCUGGGCCUGGCAGGCAUCAAAAGAAAUAGUCUUGCGCUCAACCAGAAAGUCUGUAAUCGUUUUAAGGGUA [U2C U39C A55G A78U A129G] | 0.13
GCUAACGGUCAUAGGCCAUGGAAACCAGGAGCACCAUUUCGCUGCCAGUGAAGAAAUGAACAAAGAAAAUCUGGGCCAGGCAGGCAUCAAAAGAAAUAGUCUUGCGCUCAACCAGGAAGUCUGUAAUCAUUUUAAGGGUA [U2C U26C A116G] | 0.48
GCUAACGGUCAUAGGCCAUGGAAACUAGGAGCACCACUUCGCUGCCAGUGAAGAAAUGAACAAAGAAAAUCUGGGCUAGGCAGGCAUCAAAAGAAAUAGUCUUGCGCUCAACCAGAAAGUCUGUAAUCAUUUUAAGGGUA [U2C U37C C77U] | 1.24
GCUAACGGUCAUAGGCCAUGGAAACUAGGAGCACCAUUACGGUGCCAGUGAAGAAAUGAACAAAGAAAAUCUGGGCCAGGCAGGCAUCAAAAGGAAUAGUCUUGCGCUCAACCAGAAAGUCUGUAAUCAUUUUAAGGGUA [U2C U39A C42G A94G] | 0.63
